# Laboratory results published in publication PMC10668032.
# The list shows a part of the results. At the low end of the ranking, values are background and their order means little.
# Molecular target: SIX1 homeodomain (reference allele) (UniProt Q15475)
# Assay: universal protein binding microarray
# Conditions: Universal all-10-mer PBM (8x60K, AMADID 030236), 300 nM GST-tagged protein, Alexa Fluor 488 anti-GST; buffer, salt, pH and temperature not stated; high values mean tight binding; most listed sequences are background and not binding sites; double strand, one strand shown
row,Sequence,binding signal
1,CAGATGCG,0.0858 E-score
2,ATAGTTTG,0.0746 E-score
3,GTTCAAAA,-0.306 E-score
4,CATATCGG,0.401 E-score
5,AGCATTTC,-0.235 E-score
6,CAGAAGGA,-0.0203 E-score
7,CGCTCTAC,-0.0295 E-score
8,CATCAGGC,-0.139 E-score
9,AGATACCG,0.37 E-score
10,TATAGAGA,0.12 E-score
11,ATTTCAAG,-0.289 E-score
12,ATAATGGA,0.0315 E-score
13,GAAAAATC,0.0109 E-score
14,GAGAGTGA,-0.033 E-score
15,AGAGAAGG,0.00404 E-score
16,CTCTAACA,-0.0355 E-score
17,ACGGAGAT,0.195 E-score
18,CAGATTAC,0.187 E-score
19,CACAGTTC,-0.0801 E-score
20,CCGTGCCA,-0.119 E-score
21,CAGGTAAC,-0.0125 E-score
22,CGTTAGAA,-0.0539 E-score
23,GGAATTAA,0.0483 E-score
24,ACTGTATG,-0.0721 E-score
25,CTACCGAA,-0.117 E-score

row,Sequence,binding signal
1,AAGGCTTG,-0.21 E-score
2,CCGCCCAG,0.071 E-score
3,AGTTCCAA,-0.169 E-score
4,ACTTGGGC,-0.279 E-score
5,AATGTGCT,-0.241 E-score
6,CTCAGGAA,0.0307 E-score
7,ATTTATCC,0.198 E-score
8,ATCCAAAC,0.175 E-score
9,GACCAGAA,-0.0271 E-score
10,GAGCCCCA,0.0929 E-score
11,CGCCGGAG,0.00572 E-score
12,CGATCCAA,0.143 E-score
13,CTGTAGTC,-0.148 E-score
14,CGCCCAAG,-0.121 E-score
15,GCATCGAC,0.0744 E-score
16,CAAAGTAC,-0.104 E-score
17,AACAGGGC,-0.128 E-score
18,AGCGACGG,-0.0774 E-score
19,GCGAGTGA,0.0172 E-score
20,ATACATAC,0.325 E-score
21,CAATGAAC,-0.158 E-score
22,ACGGGCTG,-0.0887 E-score
23,GACGCGCA,-0.15 E-score
24,TAAGCCTA,0.0585 E-score
25,CATCTTAC,-0.0232 E-score

row,Sequence,binding signal
1,CCATTGAC,-0.0605 E-score
2,ATCCGAAT,0.313 E-score
3,CGCTGGGC,-0.165 E-score
4,ATATAATA,0.322 E-score
5,AGATGGAA,0.124 E-score
6,CCGCCTGA,0.228 E-score
7,ATGGAGAA,-0.0514 E-score
8,GGGACTCA,-0.321 E-score
9,CGCGAGAC,0.0976 E-score
10,GCCGGCTA,0.036 E-score
11,CCGAGGGA,-0.0027 E-score
12,AAGAAACC,-0.0155 E-score
13,AAACTCTA,-0.209 E-score
14,GACCTTTA,-0.195 E-score
15,AGAAGTCG,-0.197 E-score
16,TCAGCTAA,-0.138 E-score
17,AGATACCT,0.42 E-score
18,ATCAACGA,0.201 E-score
19,ATTGAAAC,-0.0142 E-score
20,ATTAGGGG,0.128 E-score
21,ACGCCCAA,-0.119 E-score
22,ATGGGGTC,0.168 E-score
23,CTTTACAA,-0.303 E-score
24,ATGAGTGC,-0.0107 E-score
25,AAAGGCTT,-0.251 E-score

row,Sequence,binding signal
1,ATGCCTAC,-0.0281 E-score
2,AGTATGTG,0.0433 E-score
3,ACACGGTC,-0.128 E-score
4,AGGCTCGG,0.0691 E-score
5,GCTGAGCC,0.135 E-score
6,CGGTCCCC,-0.0557 E-score
7,GAAGAGCC,-0.0821 E-score
8,AGCTTTAC,-0.0217 E-score
9,GCTTGTCA,-0.169 E-score
10,ATTAGGTA,0.0366 E-score
11,ACGTCAAG,-0.0419 E-score
12,ACCTATAG,0.064 E-score
13,ATGCTTTC,-0.12 E-score
14,AAACACTA,-0.205 E-score
15,GCACTGCA,0.000355 E-score
16,AATGGGTC,-0.178 E-score
17,ATTTGGAC,-0.283 E-score
18,GAAAAGCA,-0.39 E-score
19,GCAAGTCA,-0.235 E-score
20,ACAGCTGA,-0.0915 E-score
21,GTTCGGCA,-0.087 E-score
22,AAGCTCTA,-0.142 E-score
23,CCTCCCCA,0.0583 E-score
24,GTATGACA,0.153 E-score
25,CCATTTCA,-0.229 E-score

row,Sequence,binding signal
1,CAAGGACC,-0.266 E-score
2,AAACATTG,-0.256 E-score
3,AATCACAA,-0.155 E-score
4,ACTTCCGA,0.0499 E-score
5,AGAGACAC,0.145 E-score
6,ACTTTTCA,-0.263 E-score
7,ACGCACAT,0.0406 E-score
8,CGTTAGGA,-0.00931 E-score
9,AATCTGAT,0.289 E-score
10,CAAATTCC,-0.154 E-score
11,ACATTCAC,-0.251 E-score
12,TCAGCGAA,-0.196 E-score
13,GCCACTAC,-0.0908 E-score
14,AGAGCGTG,0.168 E-score
15,GCAGTAAC,-0.28 E-score
16,CAGCGGCC,-0.204 E-score
17,GTAGTTGA,0.092 E-score
18,CCGCAATA,0.0965 E-score
19,AACGGAAA,-0.179 E-score
20,ACTCTAAG,-0.0554 E-score
21,ATCGCGAA,0.159 E-score
22,AGTGCCGA,-0.139 E-score
23,AAACTCGG,-0.149 E-score
24,TACGACTA,0.0278 E-score
25,AATCTCGC,-0.0356 E-score

row,Sequence,binding signal
1,AAAACCGT,-0.182 E-score
2,TGCTTAAA,-0.17 E-score
3,GAGCTGGA,0.177 E-score
4,ACCCCGAC,0.181 E-score
5,GCTCGATA,0.288 E-score
6,GAGATCTC,0.292 E-score
7,CAGGAGCC,-0.0301 E-score
8,CTCAACAG,9.5e-05 E-score
9,CGATACAG,0.313 E-score
10,ACGTGAGT,-0.112 E-score
11,GAGGATGA,0.106 E-score
12,TACCAGTA,0.201 E-score
13,GAGTTTAA,-0.155 E-score
14,CGCCAGCA,-0.174 E-score
15,AACAGTCA,-0.138 E-score
16,AGCATTAC,-0.14 E-score
17,GGCTCCGA,-0.0025 E-score
18,ACTGGGCG,-0.0474 E-score
19,CCTTGCCA,-0.145 E-score
20,TTATCAAA,-0.0696 E-score
21,GATGCTAA,-0.0756 E-score
22,CTGGACAG,-0.2 E-score
23,AGGATGAG,0.123 E-score
24,ATGTTTGC,-0.313 E-score
25,ATCTCTGA,0.154 E-score

row,Sequence,binding signal
1,CGGATCCA,0.406 E-score
2,ATTGGTAC,-0.0573 E-score
3,ACCCCGGA,0.23 E-score
4,TAGCGCTA,0.025 E-score
5,CAATCATG,0.0451 E-score
6,AGATAAAG,0.183 E-score
7,AAGTCAAA,-0.302 E-score
8,CCCCACCA,0.0103 E-score
9,GGACGGTA,-0.0189 E-score
10,GATCTGAA,0.143 E-score
11,AGTAACCG,-0.145 E-score
12,GAAATGAC,-0.207 E-score
13,TAAACTTA,-0.0993 E-score
14,GTGCTGTA,0.0699 E-score
15,ATAACAAT,0.0525 E-score
16,GATGCGTA,0.125 E-score
17,GTTTGCAA,-0.047 E-score
18,AGACACCA,0.329 E-score
19,TGCGCCCA,-0.184 E-score
20,ATTTCAGG,0.0155 E-score
21,GGTTAGAC,-0.0936 E-score
22,TCTCATAA,0.161 E-score
